From the supplement of paper PMC5499739
The full ranking holds about 16,000 sequences; the median of “Z-score” is about -0.37, and the highest 2% start at about 3.2. This is one part of the list.

Each sequence was assayed on RBM10 RRM1-ZnF (GST-tagged construct) (assay: RNAcompete 7-mer binding Z-score; higher = stronger binding preference).
Protocol: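 RNAcompete: 20 pmol GST-tagged RBM10 RNA-binding constructs were incubated with a designed RNA pool of about 241,000 sequences up to 41 nt (1.5 nmol) on glutathione beads for 30 min at 4 °C and washed. Bound RNAs were identified by microarray hybridisation. Each RNA 7-mer is scored by a one-sided Z-score of its enrichment, computed over probes that contain the 7-mer within longer pool sequences.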

Row | Sequence | RNAcompete 7-mer binding Z-score
1 | UCCGCUA | -0.691
2 | AAUCUUC | -0.743
3 | AAAGAUG | 0.761
4 | GGGUGGA | 4.53
5 | GAUCUCG | -0.707
6 | UCUAAUU | -0.818
7 | GAAUUGG | 2.41
8 | AUCAAUC | -0.561
9 | CUAUGUU | -0.513
10 | CGCCAUC | -0.607
11 | CAAUACU | -0.688
12 | CGGAAUU | 0.439
13 | AGUACCU | -0.694
14 | CGUCUGU | -0.558
15 | AGGACCU | -0.571
16 | CGUUCAC | -0.578
17 | GCGUGGA | 2.44
18 | GCUGUAA | -0.327
19 | GGGAUUA | 2.55
20 | GACAUGG | 2.42
21 | AUCGUAC | -0.386
22 | UCGGUGA | 0.452
23 | CACAAUC | -0.938

Row | Sequence | RNAcompete 7-mer binding Z-score
24 | AAGGGCU | 1.62
25 | AACAUCG | -0.415
26 | AUAAACG | -0.269
27 | CAAAGUG | 0.205
28 | GGGAUGU | 3.21
29 | CCCUCUC | -0.659
30 | CAGCGGA | 0.927
31 | GAGGUUU | 1.04
32 | AUUUUCC | -0.87
33 | CGGCGAG | 0.979
34 | AGACAUA | -0.197
35 | GGAUAUC | 0.794
36 | CGUCACA | -0.21
37 | GGUACGC | 0.836
38 | CAGUCAU | -0.685
39 | UAGUACU | -0.34
40 | ACUGGGG | 1.89
41 | UAGCAAU | -0.272
42 | UCUUCGG | -0.477
43 | GCAUCCA | -0.535
44 | CUCGAUU | -0.75
45 | GCUUUUG | -0.639
46 | GCGUCUC | -0.665

Row | Sequence | RNAcompete 7-mer binding Z-score
47 | GCGACUA | -0.288
48 | AGAUGUG | 0.936
49 | UAGAUAC | -0.422
50 | CUGAGUA | -0.366
51 | GUAGCGA | 0.683
52 | CGCCCUG | -0.292
53 | GAAGUUC | -0.353
54 | AAGUCCA | -0.565
55 | CUAAUGG | 0.306
56 | AACACUC | -0.672
57 | UCAGGCG | 0.261
58 | UAGGGCA | 1.93
59 | GGGUCGG | 2.28
60 | GCUCGGA | 0.111
61 | CUCAGCG | -0.36
62 | UUUCCCA | -0.652
63 | UGCGAAG | 0.218
64 | UCGGUAG | 0.42
65 | UCUCUGC | -0.811
66 | UGGCCUG | -0.376
67 | GUGACUC | -0.246
68 | UCCAUGC | -0.623
69 | GGUGUUA | 1.13

Row | Sequence | RNAcompete 7-mer binding Z-score
70 | CUUAGUA | -0.61
71 | UACCCUG | -0.409
72 | GCAAGAU | -0.145
73 | ACUUGGU | -0.103
74 | ACCAUAU | -0.776
75 | GUCAUGU | -0.175
76 | AGAGACG | 0.205
77 | UGUAUCC | -0.711
78 | GUCCGGA | 0.0625
79 | CAAUAAG | -0.285
80 | CAGGCAC | 0.095
81 | GCUACUA | -0.454
82 | GACCCCG | -0.448
83 | GUUUUUU | -0.292
84 | GUGAAUC | 0.228
85 | AAUCUGC | -0.902
86 | GUCCACG | -0.266
87 | UCUGACU | -0.655
88 | CCUGUCA | -0.678
89 | UUGUCCU | -0.668
90 | GUUGCCG | 0.0105
91 | GGCAAUU | -0.0252
92 | GGCCACA | -0.162

Row | Sequence | RNAcompete 7-mer binding Z-score
93 | CGACCCU | -0.539
94 | UAGGCUC | -0.243
95 | UCUCCAC | -0.763
96 | UGGAAUG | 2.39
97 | UAACAGG | 1.03
98 | AUGGUGG | 3.82
99 | GCGCCAC | -0.21
100 | AACAAAU | -0.389
101 | GAAACUU | -0.681
102 | GUUAAAA | -0.0902
103 | CGCAAUU | -0.789
104 | CCUGAGG | 0.339
105 | GGCAUCG | 0.475
106 | AAGGUGU | 2.55
107 | UCGGAGC | 0.0138
108 | AGUGAAC | 0.134
109 | AGCCGAU | -0.6
110 | UAGGACC | 0.391
111 | AUUUCGG | -0.279
112 | GGGUCUA | 0.628
113 | AUCCGUC | -0.766
114 | GUAAUUG | 0.465
115 | CGGCGAC | -0.0642

Row | Sequence | RNAcompete 7-mer binding Z-score
116 | CGGCAGA | 0.339
117 | GUUGUUU | -0.00896
118 | AAUGAAC | -0.269
119 | ACAUGAU | -0.259
120 | AUGCGGA | 0.962
121 | AGAUCAG | 0.261
122 | UAACCUA | -0.824
123 | GACAAGA | 0.176
124 | AGAUGUA | 0.235
125 | ACUGAAU | -0.5
126 | GCUAUUA | -0.259
127 | AUUCACA | -0.662
128 | GGAAUAA | 1.2
129 | AGUUGGA | 1.87
130 | AACUGAU | -0.201
131 | GCAUGUC | -0.35
132 | UAUCCUA | -0.902
133 | UCCGAGC | -0.72
134 | AGCUUGU | -0.704
135 | CAUGCAC | -0.548
136 | CUCUGUA | -0.821
137 | CGAUUUG | -0.584
138 | AGGGCAA | 1.73

Row | Sequence | RNAcompete 7-mer binding Z-score
139 | CGUAGUU | -0.483
140 | UACAUUA | -0.668
141 | AUACCUC | -0.717
142 | GUAGCCG | -0.0869
143 | AUAGCUU | -0.714
144 | UUGUCAU | -0.759
145 | UGGUUCA | -0.0479
146 | CUGUUGU | -0.464
147 | GGGUACU | 1.92
148 | GGAGUAC | 1.24
149 | AUAACAC | -0.477
150 | GGAAAAU | 1.33
151 | CGCAGUA | -0.194
152 | UCUUCAC | -0.811
153 | UGCUACG | -0.448
154 | AAUUUCU | -0.857
155 | GCCGCGU | -0.584
156 | ACUAAGU | -0.412
157 | GCACCUA | -0.552
158 | UGAUAAC | -0.386
159 | GUACACC | -0.318
160 | GUCAACU | -0.405
161 | GCAAGCU | -0.542

Row | Sequence | RNAcompete 7-mer binding Z-score
162 | UGGGUCU | 1.12
163 | UCGAAUA | -0.558
164 | AGCAGCG | 0.735
165 | CAAGGGG | 2.79
166 | CUCCUCA | -0.675
167 | ACCGCUU | -0.948
168 | UUCUUAG | -0.698
169 | UUCCGGG | 0.397
170 | UCAUCCU | -0.782
171 | GCGCUGA | -0.184
172 | AAGGUUA | 2.95
173 | GUGGGGA | 4.7
174 | AGGUUUC | 0.03
175 | GUAGAGU | 1.18
176 | UCAAUCG | -0.655
177 | UGAAUGA | 0.0528
178 | UAGUCAC | -0.519
179 | GCCAGGC | -0.0837
180 | GCAUAGA | 0.00404
181 | AGUAGCU | -0.451
182 | CCUGCUG | -0.483
183 | GAUACUG | 0.0333
